Measurements published in patent US11365205B2 (Aurigene Discovery Technologies Limited, priority 2018, dated 2022).

Biological target: PRMT5/MEP50 Complex (Homo sapiens (Human), UniProt O14744)
Assay: PRMT5 inhibition based on TR-FRET assay
Type: biochemical
Conditions: 32 nM PRMT5:MEP50, 50 nM Histone-H4 peptide, 1 μM SAM
Source text: PRMT5 Inhibition Based on TR-FRET Assay:
Protein arginine methyltransferase 5 (PRMT5) is a type II arginine methyltransferase that catalyze mono- and symmetric demethylation on arginine residues of histone or non-histone proteins in presence of S-adenosylmethionine (AdoMet or SAM) a cofactor responsible for donating the methyl group. PRMT5 is reported to be overexpressed in several human cancers. To identify compounds that inhibit the PRMT5 and decrease its activity, a TR-FRET based assay has been established. Time-resolved fluorescence resonance energy transfer (TR-FRET) HTS assays are homogeneous proximity assays where the interaction of two dye-labeled binding partners is detected by the energy transfer between a donor and an acceptor dye and the subsequent light emission by the acceptor dye. PRMT5 catalyzes Histone H4 peptide which is biotin tagged to the Lysine amino acid at carboxyl end, in presence of S-adenosyl-1-methionine (SAM) to methylate the peptide. The antibody specific to mono methylated H4 peptide (H4R3) with Ig conjugate binds to the methylated peptide, indirectly binding to the Europium lanthanide. […]
The compound dilutions were prepared as 7.5% DMSO stock solutions in assay buffer. […] The plates were then read on Victor-3 with Excitation at 340 nm and Emissions collected at 615 and 665 nm in TR-FRET protocol. […]

Sequence of UniProt O14744 (O14744 whole entry): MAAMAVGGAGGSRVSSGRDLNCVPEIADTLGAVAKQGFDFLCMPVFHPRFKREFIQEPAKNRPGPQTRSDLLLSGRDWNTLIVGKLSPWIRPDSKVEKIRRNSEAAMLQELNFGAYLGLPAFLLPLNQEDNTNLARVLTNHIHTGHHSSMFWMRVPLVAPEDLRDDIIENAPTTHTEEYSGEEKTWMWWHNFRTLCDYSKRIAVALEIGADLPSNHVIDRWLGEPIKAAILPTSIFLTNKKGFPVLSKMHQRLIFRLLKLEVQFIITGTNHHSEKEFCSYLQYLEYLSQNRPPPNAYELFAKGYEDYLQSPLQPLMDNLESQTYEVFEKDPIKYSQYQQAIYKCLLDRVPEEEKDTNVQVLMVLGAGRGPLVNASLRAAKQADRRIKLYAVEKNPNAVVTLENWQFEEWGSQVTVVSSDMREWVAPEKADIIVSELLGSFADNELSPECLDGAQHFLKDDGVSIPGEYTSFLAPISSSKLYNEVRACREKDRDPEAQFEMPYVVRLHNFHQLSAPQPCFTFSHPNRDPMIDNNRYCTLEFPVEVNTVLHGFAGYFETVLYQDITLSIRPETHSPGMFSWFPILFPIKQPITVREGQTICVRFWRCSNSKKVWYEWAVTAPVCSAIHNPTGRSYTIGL
Sequence of UniProt O14744 (Q9BQA1 whole entry partner): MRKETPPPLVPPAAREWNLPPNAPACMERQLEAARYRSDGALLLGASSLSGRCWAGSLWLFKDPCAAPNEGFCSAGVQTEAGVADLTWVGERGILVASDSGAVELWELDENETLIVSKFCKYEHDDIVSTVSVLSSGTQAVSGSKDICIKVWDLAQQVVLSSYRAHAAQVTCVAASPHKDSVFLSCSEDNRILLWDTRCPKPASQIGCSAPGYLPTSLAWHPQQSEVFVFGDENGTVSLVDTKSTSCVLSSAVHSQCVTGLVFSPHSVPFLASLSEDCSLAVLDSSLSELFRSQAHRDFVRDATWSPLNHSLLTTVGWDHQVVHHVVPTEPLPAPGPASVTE

SMILES | IC50 [µM]
Cc1ccc(CN2C(=O)CN(CC(O)CN3CCc4ccccc4C3)C2=O)cc1 (centres unmarked) [Example 17, 1-(3-(3,4-Dihydroisoquinolin-2(1H)-yl)-2-hydroxypropyl)-3-(4-methylbenzyl)imidazolidine-2,4-dione] | 0.03
O=C1N(Cc2ccccc2)CCN1CC(O)CN1CCc2ccccc2C1 (centres unmarked) [Example 20, 1-benzyl-3-(3-(3,4-dihydroisoquinolin-2(1H)-yl)-2-hydroxypropyl)imidazolidin-2-one] | 0.65
